These results are taken from publication PMC7819943, “Rice protein-binding microarrays: a tool to detect cis-acting elements near promoter regions in rice”.

The list shows a part of the results.

The target in this experiment is T1, OsWOX13 (Oryza sativa, UniProt Q5QMM3 1-267).
T1 sequence: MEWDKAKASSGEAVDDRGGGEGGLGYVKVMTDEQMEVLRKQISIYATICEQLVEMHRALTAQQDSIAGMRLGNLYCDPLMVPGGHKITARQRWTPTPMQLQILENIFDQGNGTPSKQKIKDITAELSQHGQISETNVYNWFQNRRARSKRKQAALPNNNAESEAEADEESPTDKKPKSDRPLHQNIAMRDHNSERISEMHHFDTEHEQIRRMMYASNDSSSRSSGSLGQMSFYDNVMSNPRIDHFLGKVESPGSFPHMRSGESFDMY
The experiment can be described thus: protein-binding microarray (RPBM); PBS, 2% BSA, 51.3 ng/ul salmon testes DNA, 50 uM zinc acetate, 200 nM TF, 25 C, 1 h; high values mean tight binding. As to conditions: protein: recombinant; tags: N-terminal polyhistidine and DsRed monomer fusion (pET32a); label: CyDye5-dUTP incorporated in the synthesized complementary strand; 3' TTTTT single-stranded linker to array surface; dsDNA, one strand shown. Summed up:
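Binding signal is reported as fluorescence intensity per feature (arbitrary units) from an Axon 4000B scanner. Incubation used 200 nM of each Ni–NTA-purified, N-terminally polyhistidine- and DsRed-fused transcription factor from E. coli BL21-CodonPlus on a double-stranded custom Agilent array for 1 h at 25 °C, with 50 µM zinc acetate in the buffer, followed by washing.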
Turning to “TTTAATTAATCATGTGTTATCGAGCTTCTTAATTTTGCATCGGAGTCACCTAGTGCAG”, the binding signal was 31100 fluorescence intensity (a.u.).
Consider “TGGCATAATTTTGCTTATTGATAGTTCATTTGGGCATGCCCGGAGTCACCTAGTGCAG”, for which the binding signal is 23100 fluorescence intensity (a.u.).
The result for “TTAACCAAAATTTTAATTTTAATTTTGACGTGAACTAAACCGGAGTCACCTAGTGCAG” reads 13100 fluorescence intensity (a.u.); that for “TACTTAAATTACCAAATTCGGTCGTTAACACCAACACTCTCGGAGTCACCTAGTGCAG”, 15000 fluorescence intensity (a.u.); that for “GTGCTGTATGTTGATTATATACAGGTTGAGTGCAACCTGCCGGAGTCACCTAGTGCAG”, 3580 fluorescence intensity (a.u.).
The result for “ATATCACGTGATACTTGATAGAATCACGTGATATCACCCCCGGAGTCACCTAGTGCAG” reads 3390 fluorescence intensity (a.u.); that for “GTTTTGTCAATTAAATTGTACTCAACTGCCAAGTTGATGTCGGAGTCACCTAGTGCAG”, 31700 fluorescence intensity (a.u.).
Under “TCCCCTCAATCAATCAAGCTTAAGCTAAGCTGGGCGCGACCGGAGTCACCTAGTGCAG” stands 25900 fluorescence intensity (a.u.); under “AGTTTTGATTGTTTTGAATACCTGGACTCTCTCACTATATCGGAGTCACCTAGTGCAG”, 27200 fluorescence intensity (a.u.); under “CTAGATTATTATATTTTAGAACGGAGTTAGAATTATTATGCGGAGTCACCTAGTGCAG”, 13300 fluorescence intensity (a.u.).
As to “CTCCATAAGATTATTGGTGATTATAGCTCCGATATATGAGCGGAGTCACCTAGTGCAG”, the binding signal is 9140 fluorescence intensity (a.u.).
The result for “ATTAGTTGATTTGCAAATAATTTCCACCGTGGCGTGACAACGGAGTCACCTAGTGCAG” reads 34900 fluorescence intensity (a.u.); that for “ATGCGAGATTGGGTTAAAAGAGATGGAGACAAGGATTTTACGGAGTCACCTAGTGCAG”, 3430 fluorescence intensity (a.u.); that for “ACTGACATGTGGGCCCAATAATTTATTTTCATTATTTTACCGGAGTCACCTAGTGCAG”, 3160 fluorescence intensity (a.u.).
The result for “AAGCGTATCAATCAATCATCAGTGGTATACAAAATTTCCACGGAGTCACCTAGTGCAG” reads 35700 fluorescence intensity (a.u.); that for “GTTCTGTAATTGCAATGCATATTGATACTGAGACTGACTCCGGAGTCACCTAGTGCAG”, 6650 fluorescence intensity (a.u.).
For “AGAATAGATAGAGTGGTTATATATGTTGATAATCTCGGATCGGAGTCACCTAGTGCAG”, the binding signal was 4250 fluorescence intensity (a.u.).
The result for “TCAATTAATCATACGCTAATGGTTAATCTCGTTTTACGTACGGAGTCACCTAGTGCAG” reads 8160 fluorescence intensity (a.u.); that for “TAACTAATCACTCGTTAATGACCTTTCCAGTTTTCCGTATCGGAGTCACCTAGTGCAG”, 13800 fluorescence intensity (a.u.); that for “CTTAATTAATATAATCGGCAGGAGCTCACTGTTTGTTAACCGGAGTCACCTAGTGCAG”, 52800 fluorescence intensity (a.u.).
The result for “CTTGATTATGGCTTCAATTTCATCCGGTGGTATGAATGCCCGGAGTCACCTAGTGCAG” reads 7970 fluorescence intensity (a.u.); that for “ACTAACGGTAATCACATGAGAATCCCGACCTCCCCACCCCCGGAGTCACCTAGTGCAG”, 5700 fluorescence intensity (a.u.).
“ATCTAATCAAACCGTAGTTAAATGCAAGTTTTATATAAACCGGAGTCACCTAGTGCAG”: the binding signal is 4890 fluorescence intensity (a.u.).
On to “TGGGATAATTGTGCTCTTACTCTTACTATCGATTTTAATTCGGAGTCACCTAGTGCAG”, for which the binding signal is 5310 fluorescence intensity (a.u.).
Under “GTCGATCTCATCTATTACTGCAATTTTCAATTAAAAGACTCGGAGTCACCTAGTGCAG” stands 4080 fluorescence intensity (a.u.); under “AAATTGACATAGCCCCTCTAGTATCCTGCGTGACGCTGATCGGAGTCACCTAGTGCAG”, 9000 fluorescence intensity (a.u.); under “TAATAGAATAAATATTCAATCAATGCACTTAAGAGAAACTCGGAGTCACCTAGTGCAG”, 10900 fluorescence intensity (a.u.).
Consider “ATCTTCCCCATCATAAATGACTGGCCAATCATTCACAACTCGGAGTCACCTAGTGCAG”, for which the binding signal is 9130 fluorescence intensity (a.u.).
For the sequence “ATAATAATAAATTTGAACGTGAATTACGCGTTAGATTCATCGGAGTCACCTAGTGCAG”, the binding signal is 4550 fluorescence intensity (a.u.).
The result for “GTTAGGGTTTTCTTTTGATTGTCAGGGTTTTCTTTTGATTCGGAGTCACCTAGTGCAG” reads 3960 fluorescence intensity (a.u.); that for “AATCAATCAGCAAGGAGGCATACGTGTATATGAACGAATTCGGAGTCACCTAGTGCAG”, 12800 fluorescence intensity (a.u.).
“CACCATTATTGCCAATTATCCTTGCTTGCGTGGTAGAGTACGGAGTCACCTAGTGCAG”: the binding signal is 26200 fluorescence intensity (a.u.).
For the sequence “ATAAATTTATCTGTGTGTCCGTATATCCGATGTGACACGCCGGAGTCACCTAGTGCAG”, the binding signal is 11800 fluorescence intensity (a.u.).
Turning to “TAAATAATGAGAACCAATCAGGCACAAAAGCATTGGATAACGGAGTCACCTAGTGCAG”, the binding signal was 12500 fluorescence intensity (a.u.).
Under “GTTTGATTATTATTTGCGTTTTGCAGTGTCCGTGATCACACGGAGTCACCTAGTGCAG” stands 31600 fluorescence intensity (a.u.); under “ATATAATTGATAATAAATCAGGGCATGACATGTCACATATCGGAGTCACCTAGTGCAG”, 56400 fluorescence intensity (a.u.).
The result for “ATTGATGGAGGTTTGATTATTATGGTCCAGGTTCATGGTTCGGAGTCACCTAGTGCAG” reads 44200 fluorescence intensity (a.u.); that for “GGTCAATTACCGGTTGATCGAGCATCGTTTCCGAAGAGATCGGAGTCACCTAGTGCAG”, 14200 fluorescence intensity (a.u.); that for “TGGTTGGTCCATGATTATATATAATGAAACTGTGTGAAAACGGAGTCACCTAGTGCAG”, 4940 fluorescence intensity (a.u.).
Under “ATGATACCCATATTAATTAGGGTGTATATTATTTATTCTACGGAGTCACCTAGTGCAG” stands 3810 fluorescence intensity (a.u.).
For the sequence “AGTGATAATTACAGTAATTACTGTTAATTATCATAATTAGCGGAGTCACCTAGTGCAG”, the binding signal is 45100 fluorescence intensity (a.u.).
Take “CTTGTGTTATTCTTATGTAATTGTTTCTATGCTCATAAGACGGAGTCACCTAGTGCAG”: the binding signal was 5400 fluorescence intensity (a.u.).
